According to article PMC4336329 (PLoS ONE, 2015):
The campaign covered roughly 310,000 compounds. About 14,000 (4.5%) showed an effect of 50% or more. Effects have a minus sign here. The list shows a part of the results.

target: human ether-à-go-go-related gene (hERG) potassium channel (human, UniProt Q12809); assay: primary screen, population patch clamp on CHO cells stably expressing hERG
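Also: peak tail current of the secondary pulse compared with the same well before compound.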

Sequence of human ether-à-go-go-related gene (hERG) potassium channel (Q12809 whole entry, looked up): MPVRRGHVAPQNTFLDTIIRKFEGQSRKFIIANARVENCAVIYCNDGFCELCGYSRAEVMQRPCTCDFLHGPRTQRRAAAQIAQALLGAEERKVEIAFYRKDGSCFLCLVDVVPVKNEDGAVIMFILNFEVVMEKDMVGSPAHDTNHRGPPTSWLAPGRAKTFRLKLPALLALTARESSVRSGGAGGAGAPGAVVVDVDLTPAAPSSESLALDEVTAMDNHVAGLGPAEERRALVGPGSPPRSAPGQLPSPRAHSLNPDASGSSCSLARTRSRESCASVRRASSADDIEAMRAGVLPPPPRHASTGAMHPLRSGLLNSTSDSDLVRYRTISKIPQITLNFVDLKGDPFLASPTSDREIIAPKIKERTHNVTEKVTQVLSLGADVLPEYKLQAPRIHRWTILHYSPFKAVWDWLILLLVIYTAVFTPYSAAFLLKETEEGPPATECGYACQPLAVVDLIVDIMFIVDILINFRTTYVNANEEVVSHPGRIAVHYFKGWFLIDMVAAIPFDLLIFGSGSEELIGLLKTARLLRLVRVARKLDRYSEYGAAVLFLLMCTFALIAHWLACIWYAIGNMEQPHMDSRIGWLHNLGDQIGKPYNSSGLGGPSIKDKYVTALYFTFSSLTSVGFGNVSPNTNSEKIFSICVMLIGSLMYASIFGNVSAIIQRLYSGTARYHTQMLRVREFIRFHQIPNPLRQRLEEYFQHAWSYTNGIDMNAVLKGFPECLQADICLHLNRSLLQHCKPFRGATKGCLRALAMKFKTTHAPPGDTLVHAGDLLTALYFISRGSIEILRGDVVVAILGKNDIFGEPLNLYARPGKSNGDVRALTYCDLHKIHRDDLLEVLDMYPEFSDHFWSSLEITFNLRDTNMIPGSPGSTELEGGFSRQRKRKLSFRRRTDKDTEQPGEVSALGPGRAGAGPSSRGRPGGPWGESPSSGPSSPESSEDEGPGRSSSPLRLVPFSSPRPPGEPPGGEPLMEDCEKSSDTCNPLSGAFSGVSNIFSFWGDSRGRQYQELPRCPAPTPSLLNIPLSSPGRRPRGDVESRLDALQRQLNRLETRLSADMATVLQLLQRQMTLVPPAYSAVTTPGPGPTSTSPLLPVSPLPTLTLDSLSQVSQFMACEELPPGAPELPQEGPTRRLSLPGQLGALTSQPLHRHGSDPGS

Compound | hERG current change (%, negative = inhibition) at 10uM [%]
C/C(CC(=O)Nc1cccc2c1CCCC2)=N\NC(=O)c1cccc2ccccc12 | -7.31
COC(=O)c1ccc(NC(=O)C(=O)N2CCN(C(=S)NCCc3ccccc3)CC2)cc1 | -24.9
O=C(N/N=C/c1c[nH]c2ccccc12)c1cc(-c2cccc3ccccc23)n[nH]1 | -2.98
CN(C)CCC#CC1(O)c2ccccc2-c2ccccc21 | 14
CCN(CC)C(=O)c1[nH]cnc1C(=O)Nc1cccc(Cl)c1 | 5.51
COc1ccccc1C1(O)C(=O)Nc2ccc(C)cc21 (centres unmarked) | 0.933
COC(=O)C/C=C/[C@@H](C)[C@@H](/C=N/O[C@@H](C)c1cn([C@H](CO)Cc2ccccc2)nn1)NS(=O)(=O)c1ccc(C)cc1 | -20.5
COc1ccc(CCNC(=O)c2c(-c3ccccc3Cl)noc2C)cc1 | 1.88
COc1ccc(N2CCN(C(c3cc4ccc(C)cc4[nH]c3=O)c3nnnn3C3CCCC3)CC2)cc1 (centres unmarked) | -28.6
COc1ccc(NC(=O)N2C[C@@H]3C[C@@H](C2)c2cccc(=O)n2C3)c(OC)c1 | -11.5
COc1ccc(CC(=O)Nc2ccc(N3CCN(c4ccc(OC)cc4)CC3)c(C#N)c2)cc1 | 13.1
COCOc1cc(O)c(C(=O)/C=C/c2ccccc2)c(OCOC)c1 | 4.67
O=C1C(Nc2ccccc2)=C/C(=N/S(=O)(=O)c2cccs2)c2ccccc21 | -1.31
C=CCOc1ccccc1CN1CCC(Oc2ccc(C(=O)N3CCCCC3)cc2)CC1 | -57.6
CCOCCCNC(=O)c1c(C)c(C(=O)OCC)n(C)c1C | 15.3
O=C(CSc1nc2scc(-c3ccccc3)c2c(=O)[nH]1)N1CCOCC1 | -0.626
CC(Oc1ccc(Cl)cc1Cl)C(=O)Nc1ccc(N2CCN(C)CC2)cc1 (centres unmarked) | -38.3
CC(=O)NNc1nc(-c2ccc(NC(C)=O)cc2)cs1 | 16.2
CC(Oc1ccccc1)c1nnc(SCC(=O)NC2CC2)n1C (centres unmarked) | 10.5
CC1=C(C(=O)Nc2cc(C(=O)NCCC(C)C)ccc2C)SCCO1 | -52.4
CCOP(=O)(c1ccccc1)C1(C#N)CCCC1 (centres unmarked) | 15.2
CCn1cc(CNC(=O)C2CCC(=O)N(Cc3ccccc3F)C2)cn1 (centres unmarked) | 8.25

Compound | hERG current change (%, negative = inhibition) at 10uM [%]
COc1ccc(OCCCCN(C)Cc2ccccc2)cc1.O=C(O)C(=O)O | -45.7
S=c1[nH]nc(-c2cc(-c3ccccc3)n[nH]2)n1/N=C/C=C/c1ccco1 | 18.6
O=C(NCc1ccccc1)N1CCN(c2ccc(F)cc2)CC1 | -1.73
Cc1cccc(NC(=O)COC(=O)c2ccccc2-c2nc3ccccc3s2)c1C | -11
CCc1ccc(NC(=O)c2sc3nc4n(c(=O)c3c2C)CCC4)cc1 | -18.7
c1cncc(C(c2nnnn2C2CCCCC2)N2CCN3CCCC3C2)c1 (centres unmarked) | -12
CCc1ccc(/C=C2/SC(=S)N(CCCC(=O)Nc3ccccc3C(=O)O)C2=O)cc1 | 2.43
COc1ccc(-c2oc3ccccc3c2C(=O)OCc2ccc(O)cc2)cc1 | -1.19
C=CCOc1c(Cl)cc(C2NC(=O)NC(C)=C2C(=O)OC)cc1Cl (centres unmarked) | 2.26
CC(=O)N1CC(=O)N(Cc2ccccc2)/C(=C/c2ccccc2)C1=O | 1.8
O=c1cc(N2CCN(Cc3ccccc3)CC2)[nH]c(=O)n1-c1cccc(C(F)(F)F)c1 | -3.51
Cc1nn(C(C)C(=O)NCc2ccco2)c(=O)c2nn(-c3ccccc3)c(C)c12 (centres unmarked) | -16.5
CCOC(=O)C1CCCN(C(=O)C2CC(=O)N(c3ccc(C)cc3)C2)C1 (centres unmarked) | -10.2
Cc1nc2ccc(NC(=O)C3CCN(S(=O)(=O)c4cccs4)CC3)cc2s1 | -20.6
CCCCNC(=O)N(O)C1N(CCCC)C(=O)N(CC(=O)OC)C1(C)C (centres unmarked) | 20
COc1ccc(S(=O)(=O)N2CCN(C(=O)c3ccco3)CC2)c(C)c1C | -8.5
CCOc1ccccc1/C=N/NC(=O)c1ccc(Cn2cc([N+](=O)[O-])cn2)o1 | -15.9
Cc1ccccc1OCC(=O)O/N=C(\N)Cc1ccc(Cl)cc1 | 17.6
Cc1cccc(OCCCC(=O)NC2CCCCC2)c1 | 3.79
O=C(Nc1nc2ccc([N+](=O)[O-])cc2s1)c1ccncc1 | -0.912
COC(=O)c1ccc(C(=O)OC)c(NC(=O)CN(c2ccc3c(c2)OCO3)S(C)(=O)=O)c1 | -21.1
COC(=O)c1ccccc1S(=O)(=O)N(Cc1cc2cc3c(cc2[nH]c1=O)OCO3)C1CCCCC1 | 11.6

Compound | hERG current change (%, negative = inhibition) at 10uM [%]
CN1CCc2nc(SCc3ccccc3Br)c(C#N)cc2C1 | -28.2
CS(=O)(=O)N1CCN(c2ccccc2NC(=O)c2cc3ccccc3o2)CC1 | 7.78
O=C(Nc1ccc2c(c1)OCO2)C1CCCN(c2nc3ccccc3s2)C1 (centres unmarked) | -13.6
Cc1ccc(NC(=O)c2noc3c2CCc2ccccc2-3)cc1 | 16.9
CCOc1ccccc1CN1C(=O)c2ccccc2C1C(=O)NC(C)CC (centres unmarked) | 4.39
Cc1cc(C)c(NS(=O)(=O)c2ccc(NC(=O)CCC(=O)O)cc2)c(C)c1 | 18.6
N#Cc1nc(COc2cccc(Cl)c2)oc1N1CCN(c2ccccc2)CC1 | -4.18
O=C(CCNc1cccc(Cl)c1)c1cccs1 | 6.19
CC(=O)c1ccc(S(=O)(=O)NCCC(=O)OCC(=O)N2CCCC2=O)cc1 | -7.6
Nc1cccnc1Sc1cc(Cl)c(Cl)cc1Cl | 6.47
COCCCNC(=O)C1CCN(c2ccc(N3CCOCC3)nn2)CC1 | 10.1
CCn1cc(C(=O)NCCCOC(C)C)c(=O)c2cc(S(=O)(=O)N3CCC(C)CC3)ccc21 | -3.11
COc1cccc(OCc2cc(/C=N/NC(=O)c3nc(Cl)c(Cl)c(N)c3Cl)ccc2OC)c1 | 13.8
COc1ccc(Br)c(C(=O)OCC(=O)NC2CC2)c1 | -2.09
Cc1ccc(C(=O)O)cc1NC(=O)CCc1ccccc1 | 14.2
CN(C(=O)c1cc2c(s1)-c1ccccc1S(=O)(=O)C2)c1ccccc1 | -0.0159
O=C(Nc1nnc(-c2ccc(F)cc2)o1)c1cc(Cl)sc1Cl | 26.2
CC(CN1C(C)CCCC1C)OC(=O)c1ccccc1Br.Cl (centres unmarked) | -21.3
CCCCn1c(SCC(=O)N(C)C2CCS(=O)(=O)C2)nc2cc(S(N)(=O)=O)ccc21 (centres unmarked) | 14.8
COc1ccc(-c2noc(-c3ccc(Br)o3)n2)cc1 | 17.2
Cc1cc(C)c(C#N)c(N2CCC(C(N)=O)CC2)n1 | 11.1
CCN1CCN(C(=O)CCc2nnc(CCc3ccccc3OC)o2)[C@@H](C)C1=O | 17

Compound | hERG current change (%, negative = inhibition) at 10uM [%]
CCC(C)(C(=O)NC1CCCC1)N(C(=O)c1ccccn1)c1ccc(C)cc1 (centres unmarked) | 8.12
Cn1c(CN2CCCC2)nc2cc(NC(=O)COc3ccc(Cl)cc3)ccc21 | -69.2
O=C(Nc1ccccc1)O/N=C/c1ccncc1 | 2.76
CCCOc1ccc(-c2nc(N3CCN(C)CC3)c3ccccc3n2)cc1 | -21.6
COc1ccc(N(CCC(=O)O)S(=O)(=O)c2ccc(C)cc2C)cc1 | 4.13
Cc1ccc(NC(=O)Cn2nc(-c3ccccc3Cl)ccc2=O)c(Br)c1 | -6.46
Cc1ccc(NC(=O)C2=CCN(S(=O)(=O)c3ccc(F)cc3)CC2)cc1 | 1.2
Cc1cccc(C)c1N1C(=O)c2cccc([N+](=O)[O-])c2C1=O | -13.6
CN(C)S(=O)(=O)c1ccc(Cl)c(NC(=O)CN2C(=O)NC3(CCCC3)C2=O)c1 | 1.38
Cc1cccc(CN2CCN(C(C)C(=O)NC(C)c3ccccc3)CC2)c1.O=C(O)C(=O)O (centres unmarked) | -6.97
Cc1sc(NC(=O)CN2C(=O)NC3(CCCC3)C2=O)nc1-c1ccc(F)cc1 | -22.4
Cc1ccc(CN2C(=O)c3ccccc3NC23CCN(Cc2ccccc2)CC3)cc1 | 4.86
Cc1ccc2c(c1)nnn2C1CCN(C(=O)NCc2ccccc2)CC1 | -76.7
O=C(C1CC(=O)N(c2ccc(F)cc2)C1)N1CCN(c2ccc(F)cc2)CC1 (centres unmarked) | -73.1
O=C(c1ccc2nc(Cc3cccc(Cl)c3)oc2c1)N1CCC[C@H]1CO | 8.96
CC1CCCN(CCCNC(=O)c2cc3c(Cl)nc4ccccc4c3s2)C1 (centres unmarked) | -55.6
Nc1ccc(Sc2ccccc2)nc1 | -8.05
CCSc1nnc(NC(=O)C(CC)Oc2ccccc2)s1 (centres unmarked) | -15.7
Cc1ccc(C)c(SCc2noc(C(=O)NC(C)C)c2C(=O)O)c1 | 0.975
Cc1c(C(=O)N2CCCCC2)c(S(=O)(=O)NCc2ccc(Cl)cc2)c(C)n1C | -2.18
